Biological target: T1, C-terminal His-tagged triosephosphate isomerase from G. gallus (G. gallus, UniProt P00940 1-248)
T1 construct: Triosephosphate isomerase, G. gallus, 248 residues, as m1, with a C-terminal His tag; also called His-TPI; His-tagged TPI; source: E. coli BL21 (DE3), pET-21a(+)-His-TPI, purified (Ni-NTA); not shown: His tag, C-terminal, kept
Test: cross-linking; 100 μM His-TPI and 10 μM ribosomes with 2 mM BS(PEG)5 (21.7 Å arm); 10 mM sodium phosphate pH 7.5, 100 mM NaCl, 10 mM MgCl2, RT, 30 min; His-TPI recaptured on Ni-NTA in 8 M urea; the ~65 kDa band was excised, digested with trypsin and analysed by LC-MS/MS (pLink 2)
Conditions: both partners purified

T1 sequence (P00940 whole entry): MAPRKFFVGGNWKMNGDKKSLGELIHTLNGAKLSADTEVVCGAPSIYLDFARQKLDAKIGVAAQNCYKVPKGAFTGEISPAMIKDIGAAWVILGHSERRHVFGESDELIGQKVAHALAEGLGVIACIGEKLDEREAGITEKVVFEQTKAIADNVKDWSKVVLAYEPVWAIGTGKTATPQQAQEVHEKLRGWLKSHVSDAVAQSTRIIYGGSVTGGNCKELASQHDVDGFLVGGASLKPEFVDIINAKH

B1: Ribosomal protein L11 (natural protein)
chain: not shown
notes: 50S ribosomal protein L11, E. coli (strain MRE600), within the intact ribosome; Stood in the assay as a subunit of m3; also called RP L11; ribosome protein L11; source: part of intact 70S ribosomes purified from E. coli MRE600
Question: Does B1 bind?
Answer: binds

Source: PMC11284791, “Ribosome External Electric Field Regulates Metabolic Enzyme Activity: The RAMBO Effect” (The Journal of Physical Chemistry. B, 2024)
